Measurements taken from the RNAGym collection of RNA variant scans (doi:10.7554/elife.90254).
The source gives no read counts; variants with many changes may rest on few reads.

B1: LINE1-full (parent)
chain: UACGUAGGUGGUUUUCCCCUGAUAGUGCUAAGGGGGCCUGGAAGUUUGGACUGGGCAGAGCUCAACACAGCGUGGCAAAGUGGCUGUGGCUAGACUGCCUCUCUGGAUUCCUCGUCACUCAGCAGGGCAUCUCUGAGAGAAAUGCC

Variants of: B1
Assay: self-cleavage, relative activity (ratio to wild type); higher = more cleavage; in vitro, sequencing; the parent is a self-cleaving ribozyme

Variant | self-cleavage
UACGUAGGUGGUUUUCCCCUGAUAGUGCUAAGGGGGCCUGGUAGUUUGGACUGGGCAGAGCUCAACACAGCGUGGCAAGGUGGCUGUGGCUAGACUGCCUCUCUGGAUUCCUCGUCACUCAGCAGGGCAUCUCUGAGAGAAAUUCC [A42U A79G G144U] | 1.41
UACGUAGGUGGUUUUCCCCUGAUAGUGCUAAGGGGGCCUGGUAGUUUGGACUGGGCAGAGCUCAACACAGCGUGGCAAGGUGGCUGUGGCUAGACCGCCCCUCUGGAUUCCUCGUCACUCAGCAGGGCAUCUCUGAGAGAAAUGCC [A42U A79G U96C U100C] | 0.11
UACGUAGGUGGUUUUCCCCUGAUAGUGCUAAGGGGGCCUGGUAGUUUGGACUGGGCAGAGCUCAACACAGCGUGGCAAAGUGGCUGUGGCUAGUCUGCCUCUCUGGAUUCCUCGUCGCUCAGCAGGGCAUCACUGAGAGAAAUGCC [A42U A94U A117G U132A] | 0.37
UACGUAGGUGGUUUUCCCCUGAUAGUGCUAAGGGGGCCUGGUAGUUUGGACUGGGCAGAGCUCAACACAGCGUGGCAAAGUGGCUGUGGCUAGACUGCCUCUCUGGAUUCCUCGUCACUCGGCAGGGCAUCUCUGAGAGAGAUGCC [A42U A121G A141G] | 1.33
UACGUAGGUGGUUUUCCCCUGAUAGUGCUAAGGGGGCCUGGUAGUUUGGACUGGGCAGAGCUCAACACAGCGUGGCAAAGUGGCUGUGGCUAGACUGCCUCUCUGGAUUCCUCGUCACUCAGCGGGGCAUCUCUGAGAGUAAUGCC [A42U A124G A140U] | 0.62
UACGUAGGUGGUUUUCCCCUGAUAGUGCUAAGGGGGCCUGGUAGUUUGGACUGGGCAGAGCUCAACACAGCGUGGCAAAGUGGCUGUGGCUAGACUGUCCCUCUGGAUUCCUCGUCACUCAGCAGGGCAUCUCUGAGAGAAAUGCC [A42U C98U U100C] | 1.21
UACGUAGGUGGUUUUCCCCUGAUAGUGCUAAGGGGGCCUGGUAGUUUGGACUGAGCAGAGCUCAACACAGCGUGGCAAAGUGGCUGUGGCUAGACUGCCUCUCUGGAUUCCCCGUCACUCAGCAGGGCAUCUCUGAGAGAAAUGCC [A42U G54A U112C] | 0.08
UACGUAGGUGGUUUUCCCCUGAUAGUGCUAAGGGGGCCUGGUAGUUUGGACUGGGCAGACCUCAACACAGCGUGGCAAAGUGGCUGUGGCUAGACUGCCUCUCUGGAUUCCUCGUCACGCAGCGGGGCAUCUCUGAGAGAAAUGCC [A42U G60C U119G A124G] | 0
UACGUAGGUGGUUUUCCCCUGAUAGUGCUAAGGGGGCCUGGUAGUUUGGACUGGGCAGAGCUCAACACAGCAUGGCAAAGUGGCUGUGGCUAGACUGGCUCUCUGGAUUCCUCGUCACUCAGCAGGGCAUCUCUGUGAGAAGUGCC [A42U G72A C98G A136U A142G] | 0.04
UACGUAGGUGGUUUUCCCCUGAUAGUGCUAAGGGGGCCUGGUAGUUUGGACUGGGCAGAGCUCAACACAGCAUGGCAAAGUGGCUGUGGCUAGACUGCCUCUCUGGAUUCCUCGUCACUCAGCAGGGCAUCUCUGAGAGAAACGCC [A42U G72A U143C] | 1.18
UACGUAGGUGGUUUUCCCCUGAUAGUGCUAAGGGGGCCUGGUAGUUUGGACUGGGCAGAGCUCAACACAGCGUGGCAAAGUGGCUGUGGCUAUACUGCCUCUCUGGAUUCCUCGUCACUCAGCAGGGCAUCUCCGAGAGAAAUGCC [A42U G93U U134C] | 0.07
UACGUAGGUGGUUUUCCCCUGAUAGUGCUAAGGGGGCCUGGUAGCUUGGACUGGGCAGAGCUCAACACAGCGUGGCAAAGUGGCAGUGGCUAGACUGCCUCUCUGGAUUCCUCGUCACUCAGCAGGGCAUCUCUGAGAGAAAUGCC [A42U U45C U85A] | 0.04
UACGUAGGUGGUUUUCCCCUGAUAGUGCUAAGGGGGCCUGGUAGCUUGGACUGGGCAGAGCUCAACACAGCGUGGCAAAGUGGCUGUGGCUAGACUGCCUCUCUGGAUCCCUCGUCACUCAGCAGGGCAUCUCUGAGAGAAAUGCC [A42U U45C U109C] | 1.91
UACGUAGGUGGUUUUCCCCUGAUAGUGCUAAGGGGGCCUGGUAGUAUGGACUGGGCAGAGCUCAACACAGCGCGGCAAAGUGGCUGUGGCUAGACUGCCACUCUGGAUUCCUCGUCACUCAGCAGGGCAUCUCUGAGAGAAACGCC [A42U U46A U73C U100A U143C] | 0.42
UACGUAGGUGGUUUUCCCCUGAUAGUGCUAAGGGGGCCUGGUAGUCUGGACUGGGCAGAGCUCAACACAGCGUGGCAAAGUGGCUGUGGCUAGACUGCUUCUCUGGAUUCCUCGUCACUCAGCAGGGCAUCUCUGAGAGAAAUGCC [A42U U46C C99U] | 0.41
UACGUAGGUGGUUUUCCCCUGAUAGUGCUAAGGGGGCCUGGUAGUUUGGACAGGGCAGGGCUCAACACAGCGUGGCAAAGUGGCUGUGGCUAGACUGCCUCUCUGGAUUCCUCGUCACUCAGCAGGGCAUCUCUGAGAGGAAUGCC [A42U U52A A59G A140G] | 0.08
UACGUAGGUGGUUUUCCCCUGAUAGUGCUAAGGGGGCCUGGUAGUUUGGACUGGGCAGAGCUCAACACAGCGUGGCAAAGUGGCCGUGGCUAGACUGCCCCUCUGGAUUCCUCGUCACUCAGCAGGGCAUCUCUGAGAGAAGUGCU [A42U U85C U100C A142G C146U] | 0.53
UACGUAGGUGGUUUUCCCCUGAUAGUGCUAAGGGGGCCUGGUAGUUUGGACUGGGCAGAGCUCAACACAGCGUGGCAAAGUGGCUGUGGCCAGACUGCCUCUCUGGAUCCCUCGUCACUCAGCAGGGCAUCUCUGAGAGAAAUGCC [A42U U91C U109C] | 0.22
UACGUAGGUGGUUUUCCCCUGAUAGUGCUAAGGGGGCCUGGUAGUUUGGACUGGGCAGAGCUCAACACAGCGUGGCAAAGUGGCUGUGGCUAGACUGCCUCUCUGGAAUCCUCGUCACUCAGCAGGGCAUCUCUGAGAGAAACGCC [A42U U108A U143C] | 0.98
UACGUAGGUGGUUUUCCCCUGAUAGUGCUAAGGGGGCCUGGUAGUUUGGACUGGGCAGAGCUCAACACAGCGUGGCAAAGUGGCUGUGGCUAGACUGCCUCUCUGGACUCCCCGUCACUCAGCAGGGUAUCUCUGAGAGAAGUGCC [A42U U108C U112C C128U A142G] | 2.75

Variant | self-cleavage
UACGUAGGUGGUUUUCCCCUGAUAGUGCUAAGGGGGCCUGGUAGUUUGGACUGGGCAGAGCUCAACACAGCGUGGCAAAGUGGCUGUGGCUAGACUGCCUCUCUGGACUCCUCGUCACUCAGCAGGGCAUCUCUGAGAGAAACGCC [A42U U108C U143C] | 1.23
UACGUAGGUGGUUUUCCCCUGAUAGUGCUAAGGGGGCCUGGUAGUUUGGACUGGGCAGAGCUCAACACAGCGUGGCAAAGUGGCUGUGGCUAGACUGCCUCUCUGGAUGCCUCGCCACUCAGCAGGGCAUCUCUGAGAGAAAAGCC [A42U U109G U115C U143A] | 0.23
UACGUAGGUGGUUUUCCCCUGAUAGUGCUAAGGGGGCCUGGACGUUUGGACUGGGCAGAGCUCAACACAGCGUGGCGAAGUGGCUGUGGCUAGACUGCCUCUCUGGAUUCCUCGCCACUCAGCAGGGCAUCUCUGAGAGAAAUGCC [A43C A77G U115C] | 1.31
UACGUAGGUGGUUUUCCCCUGAUAGUGCUAAGGGGGCCUGGACGUUUGGACUGGGCAGAGCUCAACACAGCGUGGCAGAGUGGCUGUGGCUAGACUGCCACUCUGGAUUCCUCGUCACUCAGAAGGGCAUCUCGGAGAGAGAUGCC [A43C A78G U100A C123A U134G A141G] | 0
UACGUAGGUGGUUUUCCCCUGAUAGUGCUAAGGGGGCCUGGACGUUUGGACUGGGCAGAGCUCAACACAGCGUGGCAAAGUGGCUGUGGCUAGACUGCCUCCCUGGAUACCUCGUCACUCAGCAGGGCAUCUCUGAGAGAAAUGCC [A43C U102C U109A] | 1.35
UACGUAGGUGGUUUUCCCCUGAUAGUGCUAAGGGGGCCUGGAGGUUUGGGCUGGGCAGAGCUCAACACAGCGUGGCAAAGUGGCUGAGGCUAGACUGCCUCUCUGGAUUCCUCGUCACUCAGCAGGGCAUCUCUGAGAGAAAUGCC [A43G A50G U87A] | 0
UACGUAGGUGGUUUUCCCCUGAUAGUGCUAAGGGGGCCUGGAGGUUUGGUCUGGGCAGAGCUCAACACAGCGUGGCCAAGUGGCUGUGGCUAGACUGCCUCUCUGGAUUCCUCGUCACUCAGCAGGGCAUCUCUGAGAGAAAUGCC [A43G A50U A77C] | 0.38
UACGUAGGUGGUUUUCCCCUGAUAGUGCUAAGGGGGCCUGGAGGUUUGGUCUGGGCAGAGCUCAACACAGCGUGGCAAAGUGGCUGUGGCUAGACUGCCUCUCUGGAUUCCUCGUCACUCAGCAGGGCAUCUCUGAGGGAAAUGCC [A43G A50U A138G] | 0.56
UACGUAGGUGGUUUUCCCCUGAUAGUGCUAAGGGGGCCUGGAGGUUUGGACUGGGCGGAGCUCAACACAGCGUGGCAAGGUGGCUGUGGCUAGACUGCCUCUCUGGAUUCCUCGUCACUCAGCAGGGCAUCUCCGAGAGAAAUGCC [A43G A57G A79G U134C] | 0
UACGUAGGUGGUUUUCCCCUGAUAGUGCUAAGGGGGCCUGGAGGUUUGGACUGGGCUGGGCUCAACACAGCGUGGCAAAGUGGCUGUGGCUAGACUGCCUCUCUGGAUUCCUCGUCACUCAGCAGGGCAUCUCUGAGAGAAAUGCC [A43G A57U A59G] | 0.2
UACGUAGGUGGUUUUCCCCUGAUAGUGCUAAGGGGGCCUGGAGGUUUGGACUGGGCUGAGCUCAUCACAGCGUGGCAAAGUGGCUGUGGCUAGACUGCCUCUCUGGAUUCCUCGUCACUCAGCAGGGCAUCUCUGAGAGAAAUGCC [A43G A57U A65U] | 0.12
UACGUAGGUGGUUUUCCCCUGAUAGUGCUAAGGGGGCCUGGAGGUUUGGACUGGGCUAAGCUCAACACAGCGUGGCAAAGUGGCUGUGGCUAGACUGCCUCUCUGGAUUCCUCGUCACUCGGCAGGGCAUCUCUGAGAGAAAUGCC [A43G A57U G58A A121G] | 0.06
UACGUAGGUGGUUUUCCCCUGAUAGUGCUAAGGGGGCCUGGAGGUUUGGACUGGGCUGAGCUCAACACAGCGUGGCAAAGUGGCUGUGGCUAGACUGCCUCUCUGGAUUCCUCGUCACUCAGCAGGGCAUCUCUAAGAGAACUGCC [A43G A57U G135A A142C] | 0.08
UACGUAGGUGGUUUUCCCCUGAUAGUGCUAAGGGGGCCUGGAGGUUUGGACUGGGCAGUGCUCAACACAGCGUGGCAAAGUGGCUGUGGCUAGACUGCCUCUCUGGAUUCCUCGACACUCAGCAGGGCAUCUCUGAGAGAAACGCC [A43G A59U U115A U143C] | 0.81
UACGUAGGUGGUUUUCCCCUGAUAGUGCUAAGGGGGCCUGGAGGUUUGGACUGGGCAGAGCUCUACACAGCGUGGCAAAGUGGCUGUGGCUAGACUGCCCCUCUGGAUUCCUCGUCACUCAGCAGGGCAUCUCUGAGAGAAAUGCC [A43G A64U U100C] | 0.93
UACGUAGGUGGUUUUCCCCUGAUAGUGCUAAGGGGGCCUGGAGGUUUGGACUGGGCAGAGCUCACCACAGCGUGGCAAAGUGGCUGUGGCUUGACUGCCUCUCUGGAUCCCUUGUCACUCAGCAGGGCAUCUCUGAGAGAAAUGCC [A43G A65C A92U U109C C113U] | 0.16
UACGUAGGUGGUUUUCCCCUGAUAGUGCUAAGGGGGCCUGGAGGUUUGGACUGGGCAGAGCUCAUCACAGCGUGGCAAAGUGGCUGUGGCUAGACUGCCUCUCUGGAUUCCUCGUCACACAGCAGGGCAUCACUGAGAGAAAUGCC [A43G A65U U119A U132A] | 0.27
UACGUAGGUGGUUUUCCCCUGAUAGUGCUAAGGGGGCCUGGAGGUUUGGACUGGGCAGAGCUCAACGCAGCGUGGCAAAGUGGCUGUUGCUAGACUGCCUCUCUGGAUUCCACGUCACUCAGCAGGGCAUCUCUGAGAGAAAUGCC [A43G A67G G88U U112A] | 0.07
UACGUAGGUGGUUUUCCCCUGAUAGUGCUAAGGGGGCCUGGAGGUUUGGACUGGGCAGAGCUCAACACGGCGUGGCUAAGUGGCUGUGGCUAGACUGCCUCUCUGGAUUCCUCGUCACUCAGCAGGGCAUCUCUGAGAGAAAUGCC [A43G A69G A77U] | 0
